Experimental data reported in PubChem BioAssay (Tox21).
Where “and” joins values, the source holds several entries; their conditions need not be identical. Equal entries are not always repeated. Some compounds were tested as several samples or in several runs, with calls that do not always agree. Calls of active or inactive are those of the source. Unless noted, the call rests on the fitted dose curve; in most records, active means well fitted curve in the direction sought with a large enough effect in the repeat runs; inconclusive means weak or mixed curves; inactive means no such curve, though single readings can be large; an effect the other way counts as inactive or inconclusive.

Key:
[1] = qHTS assay to identify small molecule antagonists of the thyroid receptor (TR) signaling pathway - cell viability counter screen (AID 743064); details: GH3.TRE-Luc viability, CellTiter-Fluor, 24 h; activity change, negative = cytotoxic: at 70.3 µM (top of the series); further: nearly all actives have a fitted effect of over 50% in size; further: potency means the concentration at half of the fitted maximal effect
Outline: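 GH3.TRE-Luc rat pituitary cells dosed after 4 hr plating, co-stimulated with T3 at 1 nM final, incubated 23.5 h at 37 C. Viability measured in the same wells by CellTiter-Fluor fluorescence after 30 min further at 37 C.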

[2] = qHTS assay to identify small molecule antagonists of the thyroid receptor (TR) signaling pathway (AID 743065); further: nearly all actives have a fitted effect of over 55% in size; further: potency means the concentration at half of the fitted maximal effect
Outline: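 Antagonism measured as loss of luciferase signal in GH3 cells stably carrying a TRE-luciferase reporter, co-treated with compound and T3 (1 nM final) for 23.5 h at 37 C. Viability was read in the same well by CellTiter-Fluor.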

[3] = tested on: thyroid hormone receptor (rat, GH3 cells); test: qHTS assay to identify small molecule agonists of the thyroid receptor (TR) signaling pathway (AID 743066; calls by dose curve; further: potency means the concentration at half of the fitted maximal effect); details: GH3.TRE-Luc cells, TR agonist luciferase, 24 h; activation: at 83.9 µM (top of the series) unless noted
[4] = target: Estrogen receptor (Homo sapiens) (UniProt P03372); test: qHTS assay to identify small molecule antagonists of the estrogen receptor alpha (ER-alpha) signaling pathway (AID 743069; active means well fitted curve in the direction sought with a large enough effect in the signal ratio in the repeat runs, not every such curve was filed as active; inconclusive means weak or mixed curves, or effect the other way; inactive means no such curve, though single readings can be large or run the other way; the % refers to the signal ratio; further: potency means the concentration at half of the fitted maximal effect); details: HEK293 ER-alpha-UAS-bla, beta-lactamase ratio, antagonist mode; activity, negative = inhibition: at 69.4 µM (top of the series)
Outline: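 Fluorescence intensity from a beta-lactamase FRET substrate served as the read-out. Cells: HEK293 with stably integrated ER-alpha-UAS-bla reporter. Agonist 17beta-estradiol was co-added with compounds; incubation 18 hr at 37C, substrate 2 hr at room temperature.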

[5] = qHTS assay to identify small molecule antagonists of the estrogen receptor alpha (ER-alpha) signaling pathway - cell viability counter screen (AID 743074; calls by dose curve; further: nearly all actives have a fitted effect of over 45% in size; further: potency means the concentration at half of the fitted maximal effect)
[6] = target: Estrogen receptor (Homo sapiens) (UniProt P03372); test: qHTS assay to identify small molecule agonists of the estrogen receptor alpha (ER-alpha) signaling pathway (AID 743075; calls by dose curve; further: potency means the concentration at half of the fitted maximal effect); details: HEK293 ER-alpha-UAS-bla, beta-lactamase FRET ratio, 18 h; activation: at 70.1 µM (top of the series)
[7] = target: Estrogen receptor (Homo sapiens) (UniProt P03372); test: qHTS assay to identify small molecule agonists of the estrogen receptor alpha (ER-alpha) signaling pathway using the BG1 cell line (AID 743079); details: BG1Luc4E2 cells, ERE-luciferase agonist, 22 h; activation: at 70.3 µM (top of the series) unless noted; further: nearly all actives have a fitted effect of over 20% in size; further: potency means the concentration at half of the fitted maximal effect; on activation: on the % scale 0 is the no-effect control and ±100 the full control effect
[8] = qHTS assay to identify small molecule antagonists of the estrogen receptor alpha (ER-alpha) signaling pathway using the BG1 cell line (AID 743080; calls by dose curve;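 further: BG1 cells stimulated with 17beta-estradiol alongside compound; nearly all actives have a fitted effect of over 25% in size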; further: potency means the concentration at half of the fitted maximal effect; on activity change, negative = inhibition: on the % scale 0 is the no-effect control and ±100 the full control effect); details: BG1Luc4E2 ERE-luciferase antagonist mode, luminescence; activity change, negative = inhibition: at 70.3 µM (top of the series) unless noted
Outline: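 Readout is ONE-Glo luminescence, taken 30 min at room temperature after reagent addition, preceded by a CellTiter-Fluor viability read; BG1-Luc-4E2 cells had received compound and 17beta-estradiol for 21.5 h at 37 C.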

[9] = qHTS assay to identify small molecule antagonists of the estrogen receptor alpha (ER-alpha) signaling pathway using the BG1 cell line - cell viability counter screen (AID 743081);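 further: compound given together with 17beta-estradiol as the ER stimulus; potency means the concentration at half of the fitted maximal effect; nearly all actives have a fitted effect of over 45% in size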
[10] = qHTS assay to identify aromatase inhibitors - cell viability counter screen (AID 743084);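 further: cells stimulated with testosterone during compound exposure; potency means the concentration at half of the fitted maximal effect; nearly all actives have a fitted effect of over 55% in size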
Aromatase (Homo sapiens) = Aromatase (Homo sapiens) (UniProt P11511); test: qHTS assay to identify aromatase inhibitors (AID 743083); further: potency means the concentration at half of the fitted maximal effect; nearly all actives have a fitted effect of over 55% in size
[11] = target: Peroxisome proliferator-activated receptor gamma (Homo sapiens) (UniProt P37231); test: qHTS assay to identify small molecule agonists of the peroxisome proliferator-activated receptor gamma (PPARg) signaling pathway (AID 743094; active means well fitted activation curve with a large enough effect in the signal ratio in the repeat runs, not every such curve was filed as active; inconclusive means weak or mixed curves, or effect the other way; inactive means no such curve, though single readings can be large or run the other way; the % refers to the signal ratio; further: on the % scale 0 is the no-effect control and ±100 the full control effect); details: HEK293H PPARg-UAS-bla, beta-lactamase FRET ratio, 17 h; activation: at 57 µM (top of the series) unless noted
Outline: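 Cell-based bla reporter, HEK293H background, PPARg-driven UAS. Pre-incubation 5 h, 37C, 5% CO2. Compound 17 h, 37C. Substrate 1 h RT; fluorescence.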

[12] = target: Peroxisome proliferator-activated receptor gamma (Homo sapiens) (UniProt P37231); test: qHTS assay to identify small molecule antagonists of the peroxisome proliferator-activated receptor gamma (PPARg) signaling pathway (AID 743191; calls by dose curve; further: nearly all actives have a fitted effect of over 30% in size; further: potency means the concentration at half of the fitted maximal effect; on ratio activity, negative = inhibition: on the % scale 0 is the no-effect control and ±100 the full control effect); details: HEK293H PPARg-UAS-bla, beta-lactamase ratio, antagonist, 17 h; ratio activity, negative = inhibition: at 62.6 µM (top of the series) unless noted
Outline: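 Beta-lactamase reporter under UAS control in HEK293H PPARg-bla cells; compound treatment 17 h at 37C. Read-out: fluorescence intensity after 1 h room-temperature incubation with LiveBLAzer B/G FRET substrate.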
Tags describe the fitted curve by direction and shape or compound fluorescence and quenching.

UniProt P03372, sequence (P03372 whole entry, looked up): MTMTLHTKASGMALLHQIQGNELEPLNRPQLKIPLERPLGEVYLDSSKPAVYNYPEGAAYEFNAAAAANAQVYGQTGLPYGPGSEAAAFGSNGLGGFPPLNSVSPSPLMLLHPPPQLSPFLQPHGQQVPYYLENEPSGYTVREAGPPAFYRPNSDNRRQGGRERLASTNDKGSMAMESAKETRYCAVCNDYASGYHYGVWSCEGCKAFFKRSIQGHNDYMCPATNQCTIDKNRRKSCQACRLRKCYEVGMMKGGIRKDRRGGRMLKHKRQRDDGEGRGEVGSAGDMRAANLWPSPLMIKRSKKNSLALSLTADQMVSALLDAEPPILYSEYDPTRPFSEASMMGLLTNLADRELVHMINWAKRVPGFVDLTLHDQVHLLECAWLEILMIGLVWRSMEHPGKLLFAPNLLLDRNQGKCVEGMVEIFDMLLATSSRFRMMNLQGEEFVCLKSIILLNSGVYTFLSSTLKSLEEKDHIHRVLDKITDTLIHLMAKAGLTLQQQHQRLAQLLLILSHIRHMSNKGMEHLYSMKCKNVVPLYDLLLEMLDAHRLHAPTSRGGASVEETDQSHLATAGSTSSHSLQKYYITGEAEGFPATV
UniProt P11511, sequence (P11511 whole entry, looked up): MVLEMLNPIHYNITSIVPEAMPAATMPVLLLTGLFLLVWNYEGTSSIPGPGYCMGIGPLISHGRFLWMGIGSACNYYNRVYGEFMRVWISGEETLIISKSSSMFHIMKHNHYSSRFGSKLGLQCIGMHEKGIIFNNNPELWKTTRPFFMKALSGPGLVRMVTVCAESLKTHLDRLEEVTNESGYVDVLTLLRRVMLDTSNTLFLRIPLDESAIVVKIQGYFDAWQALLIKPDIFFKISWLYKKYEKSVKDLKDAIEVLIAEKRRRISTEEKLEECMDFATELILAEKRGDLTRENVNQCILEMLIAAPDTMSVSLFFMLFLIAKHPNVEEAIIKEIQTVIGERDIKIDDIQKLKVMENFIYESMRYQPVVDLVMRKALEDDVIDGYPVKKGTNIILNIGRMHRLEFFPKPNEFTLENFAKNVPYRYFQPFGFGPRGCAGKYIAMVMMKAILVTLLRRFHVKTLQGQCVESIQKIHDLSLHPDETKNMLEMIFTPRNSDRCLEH
UniProt P37231, sequence (P37231 whole entry, looked up): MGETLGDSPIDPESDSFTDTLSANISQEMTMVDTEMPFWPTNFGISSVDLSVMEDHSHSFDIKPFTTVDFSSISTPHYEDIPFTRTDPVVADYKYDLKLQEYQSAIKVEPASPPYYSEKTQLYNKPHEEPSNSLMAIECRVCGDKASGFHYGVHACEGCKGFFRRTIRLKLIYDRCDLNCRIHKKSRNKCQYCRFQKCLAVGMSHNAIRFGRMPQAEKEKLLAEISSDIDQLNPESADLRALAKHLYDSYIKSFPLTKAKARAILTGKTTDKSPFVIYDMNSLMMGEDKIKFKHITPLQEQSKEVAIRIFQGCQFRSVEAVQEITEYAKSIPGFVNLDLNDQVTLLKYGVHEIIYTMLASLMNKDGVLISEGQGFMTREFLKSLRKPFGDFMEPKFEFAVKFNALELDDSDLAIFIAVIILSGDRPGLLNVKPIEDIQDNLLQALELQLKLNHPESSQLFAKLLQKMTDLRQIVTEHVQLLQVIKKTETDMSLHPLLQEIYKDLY

**Q.** Which Potency [1] does the source give for `CCCCCCCCCCCCCCn1cc[n+](C)c1` here?
**A.** inconclusive: 68.5 µM [cytotoxic, single point]

**Q.** And the Potency [2]?
**A.** active: 1.09 µM and active: 3.81 µM and inconclusive: 48.5 µM [inhibitor, partial curve]

**Q.** And the Potency [3]?
**A.** inconclusive: 1.94 µM [inhibitor, partial curve, poor fit] and inconclusive: 6.78 µM [inhibitor, partial curve, poor fit]

**Q.** What about the Potency [4] of the same compound?
**A.** active: 7.78 µM [inconclusive] and active: 1.22 µM [inconclusive]

**Q.** What about the Potency [5] of the same compound?
**A.** inconclusive: 27.6 µM [cytotoxic, partial curve, poor fit] and active: 48.5 µM

**Q.** And the Potency [6]?
**A.** inconclusive: 9.79 µM [cytotoxic] and inconclusive: 21.6 µM [cytotoxic, partial curve]

**Q.** What about the Potency [7] of the same compound?
**A.** inconclusive: 2.17 µM [inhibitor, full curve] and inconclusive: 5.39 µM [inhibitor, full curve]

**Q.** And the Potency [8]?
**A.** active: 1.37 µM and active: 4.8 µM

**Q.** What about the Potency [9] of the same compound?
**A.** active: 30.7 µM and active: 24.1 µM and inconclusive: 61.1 µM [cytotoxic, partial curve]

**Q.** And the Potency [10]?
**A.** inconclusive: 27.3 µM [cytotoxic, partial curve]

**Q.** With `ClC1C(Cl)C(Cl)C(Cl)C(Cl)C1Cl` (centres undefined) as the compound, how does the Potency [1] read?
**A.** inconclusive: 49.5 µM [cytotoxic, partial curve, poor fit]

**Q.** What about the Potency [2] of the same compound?
**A.** inconclusive: 33.5 µM [inhibitor] and inconclusive: 27.6 µM [inhibitor, partial curve, poor fit] and inconclusive: 43.3 µM [inhibitor, partial curve, poor fit]

**Q.** And the Potency [5]?
**A.** inactive and inconclusive: 34.7 µM [cytotoxic, partial curve, poor fit]

**Q.** What about the Potency (Aromatase (Homo sapiens)) of the same compound?
**A.** inconclusive: 55 µM [inhibitor, partial curve] and inconclusive: 62.4 µM [inhibitor, partial curve] and inconclusive: 27.1 µM [inhibitor]

**Q.** What about the Potency [10] of the same compound?
**A.** inconclusive: 68.6 µM [cytotoxic, single point] [middle of 4 runs]

**Q.** What about the activation [11] of the same compound?
**A.** inconclusive: 0.421%

**Q.** What about the Potency [12] of the same compound?
**A.** inconclusive: 54.9 µM [activator, partial curve, poor fit]

**Q.** Which Potency [1] does the source give for `CC(C)N(C(=O)SC/C(Cl)=C/Cl)C(C)C` here?
**A.** inconclusive: 77.4 µM [cytotoxic, single point]

**Q.** And the Potency [2]?
**A.** inconclusive: 77.4 µM [inhibitor, single point]

**Q.** And the Potency [5]?
**A.** inconclusive: 55.3 µM [cytotoxic, single point]

**Q.** What about the Potency [6] of the same compound?
**A.** inconclusive: 49.3 µM [partial curve]

**Q.** And the Potency (Aromatase (Homo sapiens))?
**A.** inconclusive: 9.75 µM [inhibitor, partial curve, poor fit]

**Q.** And the ratio activity, negative = inhibition [12]?
**A.** inconclusive: 13.4% [at 81.1 µM]

**Q.** Which results are given for `CCCCOCCOP(=O)(OCCOCCCC)OCCOCCCC`?
**A.** Potency [1]: active: 54.5 µM; Potency [2]: active: 24.4 µM and active: 19.3 µM; Potency [4]: inconclusive: 55 µM [inhibitor]; Potency [5]: inconclusive: 24.6 µM [cytotoxic, full curve] and inconclusive: 4.36 µM [cytotoxic, full curve, poor fit]; activation [7]: inconclusive: -11.4% [phenotype inactive]; activity change, negative = inhibition [8]: inconclusive: -19.2%; Potency [11]: inactive; Potency [12]: inactive

**Q.** Which Potency [1] does the source give for `CCC(C)c1ccc(O)cc1` (centres undefined) here?
**A.** inconclusive: 15.5 µM [rising, single point]

**Q.** And the Potency [2]?
**A.** inconclusive: 68.6 µM [inhibitor, partial curve, poor fit]

**Q.** What does the source list for `COP(=O)(OC)OC=C(Cl)Cl`?
**A.** Potency [1]: inconclusive: 3.73 µM [rising, partial curve]; Potency [2]: inactive; Potency [4]: active: 10.7 µM [inhibitor]; Potency [5]: inconclusive: 1.51 µM [rising, full curve, poor fit]; Potency [6]: inconclusive: 10.7 µM [falling, full curve]; activation [11]: inconclusive: 14.1% [at 78.9 µM]; Potency [12]: inconclusive: 44.1 µM [inhibitor, partial curve] and inconclusive: 946 nM [inhibitor]; ratio activity, negative = inhibition [12]: inconclusive: -10.1%

**Q.** For `c1ccc(OCC2CO2)cc1` (centres undefined), which Potency [1] is on record?
**A.** inactive

**Q.** And the Potency [2]?
**A.** inactive

**Q.** What about the Potency [3] of the same compound?
**A.** inactive
